The source gives no read counts; variants with many changes may rest on few reads.
B1: CPEB3 Ribozyme (parent)
chain: UAACAGGGGGCCACAGCAGAAGCGUUCACGUCGCAGCCCCUGUCAGAUUCUGGUGAAUCUGCGAAUUCUGCUGUAUAUCUC

Variants of: B1
Test: self-cleavage, relative activity (ratio to wild type); higher = more cleavage; in vitro, sequencing
In short: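 After error-prone PCR and barcoding, CPEB3 ribozyme mutant libraries were transcribed with T7 RNA polymerase at 37°C for 5 hours, then given 15 min with DNase I before an EDTA stop, and they cleaved during both steps. Reverse transcription with template switching preceded Illumina sequencing. Relative activity divides a variant's cleaved/total read fraction by the unmutated ribozyme's. At least 5 reads were required per variant, and three batches were averaged.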

Question: For G8A A13U U51A U66A U76C, which self-cleavage is on record?
Answer: 0.06

Question: Which self-cleavage does the source give for G8U C40U U41A A47G U49A here?
Answer: 0.07

Question: For G8U A21U U25C, which self-cleavage is on record?
Answer: 0.04

Question: Which self-cleavage does the source give for G8C A18G A35U U78C here?
Answer: 0.05

Question: For G8A A20G C27U G53C, which self-cleavage is on record?
Answer: 0.04

Question: For G8U U25C C27U G36C C40U U43A A57G, which self-cleavage is on record?
Answer: 0.13

Question: Which self-cleavage does the source give for G8A C12A U25C U26A U31C A65C U67G here?
Answer: 0.03

Question: With G9A A15U U41C U48C as the variant, how does the self-cleavage read?
Answer: 0.08

Question: With G9A U60A C79U as the variant, how does the self-cleavage read?
Answer: 0.23

Question: For G9A A21G G53U A57C U72C, which self-cleavage is on record?
Answer: 0.09

Question: For G8A U58C A64G U69A, which self-cleavage is on record?
Answer: 0.06

Question: With G8U A18G U25C U43C as the variant, how does the self-cleavage read?
Answer: 0.18

Question: With G8A A20U G63U U67G as the variant, how does the self-cleavage read?
Answer: 0.04

Question: For G8A U49C U54C U67C A77G, which self-cleavage is on record?
Answer: 0.12

Question: Which self-cleavage does the source give for G7U G30U U41A U76C here?
Answer: 0.16

Question: For G8A A15U A18U U41G U49A A57G U66C, which self-cleavage is on record?
Answer: 0.1

Question: With G9A A28U U41C U51G U54C as the variant, how does the self-cleavage read?
Answer: 0.14

Question: With G8A A35G C39A U76C as the variant, how does the self-cleavage read?
Answer: 0.33

Question: Which self-cleavage does the source give for G9A A15U U26C C38G G46U U80G here?
Answer: 0.03

Question: For G9A C39U U60C C71U, which self-cleavage is on record?
Answer: 0.15

Question: With G8A U48C U78C as the variant, how does the self-cleavage read?
Answer: 0.32

Question: Which self-cleavage does the source give for G9A A45U U67G U78A here?
Answer: 0.11

Question: Which self-cleavage does the source give for G8U A15U A28C A45G U51C U72C here?
Answer: 0.04

Question: Which self-cleavage does the source give for G9A A18G A28U U72C here?
Answer: 0.16

Question: Which self-cleavage does the source give for G8U A13U A47G U51C A65G here?
Answer: 0.04

Question: Which self-cleavage does the source give for G9A U41A C68A here?
Answer: 0.04

Question: For G9A G22A U26C A77U, which self-cleavage is on record?
Answer: 0.23

Question: With G8A A15G A47G U60C as the variant, how does the self-cleavage read?
Answer: 0.3

Question: For G9A A35U A45C U60C, which self-cleavage is on record?
Answer: 0.11

Question: Which self-cleavage does the source give for G8A A20G G22U G30U A45G U76A here?
Answer: 0.04

Question: With G9A A35G U41C U58C U80C as the variant, how does the self-cleavage read?
Answer: 0.2

Question: For G8U A21G C39A A75C U78C, which self-cleavage is on record?
Answer: 0.11

Question: Which self-cleavage does the source give for G8A U54C U60G here?
Answer: 0.05

Question: With G9A C38G A57U as the variant, how does the self-cleavage read?
Answer: 0.13

Question: For G8A U66C A75G, which self-cleavage is on record?
Answer: 0.04

Question: For G8A C29A G52U, which self-cleavage is on record?
Answer: 0.05

Question: For G8U A18U A28U C40U U41C, which self-cleavage is on record?
Answer: 0.05

Question: Which self-cleavage does the source give for G8A C11U A20G A35U U80A here?
Answer: 0.04

Question: For G8A A13U C40U U58C A75G, which self-cleavage is on record?
Answer: 0.05

Question: With G9A C17G U41A U54A A65U U67A U80C as the variant, how does the self-cleavage read?
Answer: 0.08

Question: For G8A G9A A47G A64U U72G, which self-cleavage is on record?
Answer: 0.1

Question: For G8U G9A U49C A57G U80C, which self-cleavage is on record?
Answer: 0.06

Question: Which self-cleavage does the source give for G9A A13G U31C G33A C37U U74A here?
Answer: 0.07

Question: For G8A A13G U26C A28C U51A A65G, which self-cleavage is on record?
Answer: 0.06

Question: With G9A A18G U41A U51C U54C U78C as the variant, how does the self-cleavage read?
Answer: 0.06

Question: With G8A U54G A75G as the variant, how does the self-cleavage read?
Answer: 0.05

Question: Which self-cleavage does the source give for G8A G10A A15G A20G A65G U76C here?
Answer: 0.15

Question: With G8A C23A G42C U74C U80A as the variant, how does the self-cleavage read?
Answer: 0.04

Question: Which self-cleavage does the source give for G7U U31C U41C U58A here?
Answer: 0.06

Question: Which self-cleavage does the source give for G8A U31A G33C A57G U60A here?
Answer: 0.06

Question: For G8A C29G U72C, which self-cleavage is on record?
Answer: 0.09

Question: With G7U U26A U67C U78C as the variant, how does the self-cleavage read?
Answer: 0.04

Question: For G9A A45U U74C U80C, which self-cleavage is on record?
Answer: 0.07

Question: Which self-cleavage does the source give for G8A A35G U58C here?
Answer: 0.25

Question: With G9A G30A A35U U60C U80C as the variant, how does the self-cleavage read?
Answer: 0.07

Question: For G9A A28U U41C U67G U72C, which self-cleavage is on record?
Answer: 0.04

Question: Which self-cleavage does the source give for G8A A20G U48C A65G here?
Answer: 0.11

Question: For G8U U49C U51A U78G, which self-cleavage is on record?
Answer: 0.08

Question: For G8A A45G U51C U54C, which self-cleavage is on record?
Answer: 0.29

Question: Which self-cleavage does the source give for G8U G19U U51A U69C here?
Answer: 0.03

Question: For G8C U25A A57G U78C, which self-cleavage is on record?
Answer: 0.1

Question: For G8A A45U U49C, which self-cleavage is on record?
Answer: 0.05

Question: For G9A A20U U26A, which self-cleavage is on record?
Answer: 0.11

Question: Which self-cleavage does the source give for G7U U72C U76G here?
Answer: 0.25

Question: With G9C A15U U41C U58C as the variant, how does the self-cleavage read?
Answer: 0.05

Question: Which self-cleavage does the source give for G8A A18U U26A U54C C59A U72A here?
Answer: 0.04

Question: With G8A U51C U60C U72A U74C as the variant, how does the self-cleavage read?
Answer: 0.06

Question: For G7U U41A U66C U78A, which self-cleavage is on record?
Answer: 0.34

Question: Which self-cleavage does the source give for G8U A28G A64G here?
Answer: 0.1

Question: With G9A A57U C59A as the variant, how does the self-cleavage read?
Answer: 0.19

Question: Which self-cleavage does the source give for G9A U41C U51C U60C U78C here?
Answer: 0.08

Question: With G9A C29A G63A A64G as the variant, how does the self-cleavage read?
Answer: 0.05

Question: For G9A G33A U60A C68U, which self-cleavage is on record?
Answer: 0.05

Question: For G9A U26A C39U U51A U54A, which self-cleavage is on record?
Answer: 0.24

Question: With G8A C11A A15U U72C as the variant, how does the self-cleavage read?
Answer: 0.29

Question: For G8A A13U U48G A56G U58C A64G, which self-cleavage is on record?
Answer: 0.04

Question: Which self-cleavage does the source give for G8A A20G U26C U69C here?
Answer: 0.17

Question: For G9A U43C A45U A56G A57G U69A, which self-cleavage is on record?
Answer: 0.06

Question: Which self-cleavage does the source give for G8A A18U A21C U51C U60C U66G U80C here?
Answer: 0.04

Question: Which self-cleavage does the source give for G8A A56U U66C here?
Answer: 0.14

Question: For G8U A13U A18U U41A U43C, which self-cleavage is on record?
Answer: 0.05

Question: With G9A C32U A45G as the variant, how does the self-cleavage read?
Answer: 0.2

Question: For G8A A18G U26C A28C U51C A57G U72A, which self-cleavage is on record?
Answer: 0.26

Source: the RNAGym collection of RNA variant scans (doi:10.1093/nar/gkz1192)
